Results published in PubChem BioAssay AID720569 (National Center for Advancing Translational Sciences (NCATS), 2013).
Inconclusive results, whose numbers are uncertain, are shown with a selection of clear calls. Where the call is inconclusive, the potency comes from a doubtful curve fit. Calls of active or inactive are those of the source. The call rests on the fitted dose curve; in most records, active means well fitted inhibition curve with a large enough effect; inconclusive means small, poorly fitted or top-dose-only effect; inactive means no such curve, though single readings can be large or run the other way.

System: pyruvate kinase (Trypanosoma brucei)
Assay: qHTS of Trypanosoma Brucei Inhibitors: Confirmatory Assay for Cherry-picked Compounds; further: nearly all actives have a fitted effect of over 70% in size
Conditions: recombinant TbPYK, Kinase-Glo ATP luminescence; activity change, negative = inhibition: at 76.9 µM (top of the series)
Method in brief: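 Cherry-picked compounds were retested in concentration series against T. brucei PYK, 130 uM ADP, 45 min at room temperature; ATP read-out via Kinase-Glo Plus luminescence, with concentration-effect curves derived after normalization.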
On the % scale 0 is the no-effect control and ±100 the full control effect; potency means the concentration at half of the fitted maximal effect; tags describe the fitted curve by direction and shape.

Compound | Potency | activity change, negative = inhibition
CCN1/C(=C/C(C)=C/c2sc3ccccc3[n+]2CC)Sc2ccccc21 | inconclusive: 22.4 µM [inhibitor, partial curve] | –
CC1C=CCC2C(=O)N(c3cccc(C(=O)NCc4ccccc4)c3)C(=O)C12 (stereo not drawn) | inconclusive: 14.1 µM [inhibitor, partial curve] | –
CCOC(=O)CCSc1nc(N2CCOCC2)c2c(c1C#N)CC(C)(C)OC2 | active: 11.2 µM | –
O=C(O)CCc1ccc(-c2ccc(Cl)cc2)o1 | inconclusive: 35.5 µM [inhibitor, single point] | –
COC(=O)c1ccc2nc(-c3ccco3)c(Cc3ccccc3C(F)(F)F)n2c1 | inconclusive: 31.6 µM [inhibitor, single point] | –
CCOCCCNC1=C(Cl)C(=O)c2ccccc2C1=O | inconclusive: 50.1 µM [inhibitor, single point] | –
N#CC1=C2SCN(c3ccccc3)CN2C(=O)CC1c1ccccc1Cl (stereo not drawn) | active: 7.94 µM | –
Cc1cc(-c2cc(-c3ccc(Cl)cc3)nc(N)c2C#N)co1 | – | inactive: -20.7%
CCCn1c(SCC(=O)Nc2nc(-c3ccc(OC)cc3)cs2)nc2c1c(=O)n(C)c(=O)n2C | – | inactive: 10.8%
CC(=O)Nc1ccc2c(c1)Cc1cc(N3C(=O)C=CC3=O)ccc1-2 | active: 8.91 µM | –
COc1cccc(/C=C2\C(=O)C(=O)c3ccccc32)c1 | active: 31.6 µM | –
CCOC(=O)C(C)(C)N(Cc1ccccc1C)S(=O)(=O)c1ccc(Cl)c([N+](=O)[O-])c1 | – | inactive: 2.62%
Cc1nc(Nc2nc3ccccc3o2)nc(C)c1C | – | inactive: -15.6%
